{"source": "PubChem BioAssay AID1768", "about": "(National Center for Advancing Translational Sciences (NCATS), 2009)", "note": "In all, about 270,000 compounds went through this assay and about 620 (0.23%) were called active. The shares of active, inactive and inconclusive entries below differ from those in the screen. The call rests on the fitted dose curve; in most records, active means well fitted inhibition curve with a large enough effect in the polarisation, with a control signal flat (not every such curve was filed as active); inconclusive means small, poorly fitted or top-dose-only effect, or effect the other way, or a change in a side signal; inactive means no such curve, though single readings can be large or run the other way; the % refers to the polarisation. Potencies beside an inconclusive call are fits to weak or partial responses and may not hold up. A note “side channel” means that the fit belongs to a control or component signal, not to the main read-out. Potency means the concentration at half of the fitted maximal effect; tags describe the fitted curve by direction and shape or compound fluorescence and quenching."}
{"biological_target": "Menin (Homo sapiens) (UniProt O00255)", "sequence (O00255 whole entry, looked up)": "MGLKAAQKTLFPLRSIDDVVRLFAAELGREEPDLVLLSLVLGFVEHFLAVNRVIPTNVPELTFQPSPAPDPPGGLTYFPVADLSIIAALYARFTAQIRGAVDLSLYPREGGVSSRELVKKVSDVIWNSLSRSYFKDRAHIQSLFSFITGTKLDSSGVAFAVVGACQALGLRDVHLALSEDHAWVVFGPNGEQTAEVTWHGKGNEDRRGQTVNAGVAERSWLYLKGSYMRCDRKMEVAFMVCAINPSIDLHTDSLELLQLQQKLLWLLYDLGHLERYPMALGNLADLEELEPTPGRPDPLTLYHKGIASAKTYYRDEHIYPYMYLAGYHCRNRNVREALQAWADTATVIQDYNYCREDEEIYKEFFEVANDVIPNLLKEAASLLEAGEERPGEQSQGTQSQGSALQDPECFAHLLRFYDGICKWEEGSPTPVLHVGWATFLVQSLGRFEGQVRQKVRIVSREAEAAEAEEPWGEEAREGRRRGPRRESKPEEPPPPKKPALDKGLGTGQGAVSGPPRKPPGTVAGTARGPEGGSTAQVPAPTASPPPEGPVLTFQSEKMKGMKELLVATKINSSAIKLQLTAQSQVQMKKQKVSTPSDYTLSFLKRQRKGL", "assay": "qHTS Assay for Inhibitors Targeting the Menin-MLL Interaction in MLL Related Leukemias: Competition With Texas Red Labeled MLL-derived Mutant Peptide; on FP activity change, negative = inhibition: % of control where 0% means no effect", "conditions": "fluorescence polarization; FP activity change, negative = inhibition: at 61.6 µM (top of the series)"}
{"smiles": "Cc1nn(-c2c(Cl)cc(Cl)cc2Cl)c(=O)c2ccccc12", "Potency": "inconclusive: 4.47 µM [fluorescent, side channel, single point]"}
{"smiles": "O=C(Nc1ccc(Cl)c(Cl)c1)N1CCCCCC1", "Potency": "inconclusive: 39.8 µM [inhibitor, single point]"}
{"smiles": "COc1cc(/C=C(/C#N)C(=O)NCCc2c[nH]c3ccccc23)ccc1OCc1ccccc1F", "Potency": "inconclusive: 5.62 µM [inhibitor, full curve, poor fit]"}
{"smiles": "O=C(CN1CCC(Cc2ccccc2)CC1)NC(=O)NC1CCCCC1", "Potency": "inconclusive: 14.1 µM [fluorescent, side channel, partial curve]"}
{"smiles": "CC(C)Oc1ccc(C(CC(=O)N2CCOCC2)C(C)C)cc1", "note": "(stereo unspecified)", "Potency": "inconclusive: 11.2 µM [fluorescent, side channel, partial curve]"}
{"smiles": "C=CCn1c(O)c(N=NC(=S)Nc2ccc(OC)c(Cl)c2)c2ccccc21", "Potency": "inconclusive: 8.91 µM [quencher, side channel, full curve]"}
{"smiles": "O=C1c2ccccc2NC(c2ccc(Cl)cc2Cl)N1Cc1ccccc1", "note": "(stereo unspecified)", "FP activity change, negative = inhibition": "inactive: 3.44%"}
{"smiles": "Cc1cc(Nc2ccccc2)n(CCOC(=O)COc2ccccc2)n1", "Potency": "inconclusive: 2.24 µM [inhibitor, partial curve]"}
{"smiles": "COc1ccccc1-c1oc2ccccc2c(=O)c1O", "Potency": "inconclusive: 15.8 µM [fluorescent, side channel, single point]"}
{"smiles": "CO[C@]1(NC(=O)C2SC(=C(C(N)=O)C(=O)O)S2)C(=O)N2C(C(=O)O)=C(CSc3nnnn3C)CS[C@H]21", "note": "(stereo partly specified)", "FP activity change, negative = inhibition": "inactive: 12.3% [at 24.8 µM]"}
{"smiles": "COc1cc2c(cc1OC)C(COc1ccc(F)cc1)N(C(C)=O)CC2", "note": "(stereo unspecified)", "Potency": "inconclusive: 15.8 µM [inhibitor, partial curve]"}
{"smiles": "O=C(Nc1ccccc1C(=O)Nc1ccccc1)c1ccco1", "Potency": "inconclusive: 39.8 µM [fluorescent, side channel, single point]"}
{"smiles": "O=[N+]([O-])c1cccc(CN2CCC(Cc3ccccc3)CC2)c1", "Potency": "inconclusive: 0.562 µM [quencher, side channel, full curve, poor fit]"}
{"smiles": "O=C(Nc1ccc(S(=O)(=O)Nc2ncccn2)cc1)c1ccc(S(=O)(=O)N2CCCC2)cc1", "Potency": "inconclusive: 31.6 µM [inhibitor, single point]"}
{"smiles": "CCCCCCCCCCOC(=O)Cn1c(COc2ccccc2)[n+](C)c2ccccc21", "Potency": "inconclusive: 2.51 µM [fluorescent, side channel, full curve, poor fit]"}
{"smiles": "CC(=O)Nc1ccc(Sc2ncccc2C(=O)Nc2cc(Cl)cc(Cl)c2)cn1", "Potency": "inconclusive: 7.08 µM [quencher, side channel, partial curve]"}
{"smiles": "CC(=O)c1ccc(Nc2cc(C)nc3c(C)cccc23)cc1", "Potency": "inconclusive: 3.16 µM [quencher, side channel, full curve]"}
{"smiles": "CCn1c2ccccc2c2cc(NC(=O)c3ccccc3-c3ccccc3C(=O)O)ccc21", "Potency": "inconclusive: 11.2 µM [quencher, side channel, partial curve]"}
{"smiles": "COc1cc(NS(=O)(=O)c2ccc(NC(=S)NC(=O)COc3ccccc3OC)cc2)nc(OC)n1", "Potency": "inconclusive: 22.4 µM [quencher, side channel, partial curve, poor fit]"}
{"smiles": "COc1ccc(S(=O)(=O)NNC(=O)c2cc3cc4ccccc4nc3s2)cc1", "Potency": "inconclusive: 28.2 µM [quencher, side channel, single point]"}
{"smiles": "COc1ccc([C@@H](C)NC(=O)c2ccc3oc(C(C)C)nc3c2)cc1", "Potency": "inconclusive: 11.2 µM [inhibitor, partial curve]"}
{"smiles": "Cc1ccc(C(=O)Nc2ccc(O)cc2C(=O)O)cc1", "Potency": "inconclusive: 39.8 µM [quencher, side channel, single point]"}
{"smiles": "CN(C)C(=O)CSc1nnc(-c2cc(-c3cccs3)nc3ccccc23)o1", "Potency": "inconclusive: 14.1 µM [quencher, side channel, partial curve]"}
{"smiles": "COc1ccccc1-n1cc2c([N+](=O)[O-])cc([N+](=O)[O-])cc2n1", "Potency": "inconclusive: 5.01 µM [quencher, side channel, full curve]"}
{"smiles": "C=CCn1c(SCc2ccc(Cl)c(Cl)c2)nnc1C(CO)NC(=O)c1ccc(OC)cc1", "note": "(stereo unspecified)", "Potency": "inconclusive: 31.6 µM [fluorescent, side channel, single point]"}
{"smiles": "Cc1cc(C)nc(Nc2ccc(Br)cc2C(=O)O)n1", "Potency": "inconclusive: 28.2 µM [quencher, side channel, single point]"}
{"smiles": "CCOC(=O)c1c(N)nn(C(=O)C(C)C)c1-c1ccc(OC)cc1", "FP activity change, negative = inhibition": "inactive: -0.182%"}
{"smiles": "CC1CCc2c(sc(Nc3nc4c(F)cccc4s3)c2C(N)=O)C1", "note": "(stereo unspecified)", "Potency": "inconclusive: 25.1 µM [quencher, side channel, partial curve]"}
{"smiles": "O=C(c1cc(C(F)(F)F)cc(C(F)(F)F)c1)N1CCC2(CC1)CCN(c1ccncc1)CC2", "FP activity change, negative = inhibition": "inactive: -9.98%"}
{"smiles": "Nc1c(C(=O)NCc2ccco2)sc2nc3c(cc12)C(=O)CCC3", "Potency": "inconclusive: 22.4 µM [quencher, side channel, partial curve]"}
{"smiles": "CCOC(=O)c1sc(NC(=S)NC(=O)C2CCCC2)cc1C", "Potency": "inconclusive: 39.8 µM [inhibitor, single point]"}
{"smiles": "O=C(Nc1cccc(Cl)c1)Nc1nc(-c2ccc(Cl)cc2)cs1", "Potency": "inconclusive: 3.98 µM [quencher, side channel, full curve]"}
{"smiles": "C[N+]1(C2CCC3CCC2C3O)CCCC1", "note": "(stereo unspecified)", "FP activity change, negative = inhibition": "inactive: 4.77%"}
{"smiles": "c1ccc2c(c1)CCN(C1=Nc3cccc4cccc1c34)C2", "Potency": "inconclusive: 31.6 µM [fluorescent, side channel, single point]"}
{"smiles": "Cc1nnc(N/N=C/c2cc([N+](=O)[O-])c(N3CCC(C)CC3)cc2N2CCC(C)CC2)n1N", "Potency": "inconclusive: 39.8 µM [inhibitor, partial curve, poor fit]"}
{"smiles": "O=C1NC(=Nc2cccc(O)c2)S/C1=C\\c1cccc([N+](=O)[O-])c1", "Potency": "inconclusive: 15.8 µM [quencher, side channel, partial curve]"}
{"smiles": "CCc1cccc(NS(=O)(=O)c2c(C)nc3scc(C)n3c2=O)c1", "Potency": "inconclusive: 39.8 µM [inhibitor, partial curve, poor fit]"}
{"smiles": "Cc1c(OCC(=O)N2C[C@H]3C[C@@H](C2)c2cccc(=O)n2C3)ccc2c3c(c(=O)oc12)CCC3", "Potency": "inconclusive: 8.91 µM [inhibitor, partial curve]"}
{"smiles": "COc1ccccc1/C=C1\\SC(=S)N(NS(=O)(=O)c2ccc(C)cc2)C1=O", "Potency": "inconclusive: 39.8 µM [quencher, side channel, single point]"}
{"smiles": "O=C(CSCc1nc2c(nnn2Cc2ccc(F)cc2)c(=O)[nH]1)Nc1cccc(C(F)(F)F)c1", "Potency": "inconclusive: 39.8 µM [quencher, side channel, single point]"}
{"smiles": "CCN(CC)c1ccc2nc3ccccc3[n+](CC)c2c1", "Potency": "inconclusive: 12.6 µM [fluorescent, side channel, partial curve]"}
{"smiles": "CC(=O)N1CCCc2cc(S(=O)(=O)N3CCCC(C(=O)N4CCN(c5cccc(Cl)c5)CC4)C3)ccc21", "note": "(stereo unspecified)", "Potency": "inconclusive: 0.562 µM [inhibitor, partial curve, poor fit]"}
{"smiles": "COCCCNc1c2c3c(cccc3[nH]c1=O)C(=O)c1ccccc1-2", "Potency": "active: 31.6 µM"}
{"smiles": "COC(=O)CN1C(=O)Nc2ccc(Cl)cc2C1c1ccccc1", "note": "(stereo unspecified)", "Potency": "inconclusive: 3.98 µM [inhibitor, partial curve, poor fit]"}
{"smiles": "Cc1ccc(-n2cnc(=O)c3cccnc32)cc1", "FP activity change, negative = inhibition": "inactive: 0.0373%"}
{"smiles": "Cc1ccc(C(=O)Nc2ccc(S(=O)(=O)N3CCN(C)CC3)cc2)o1", "Potency": "inconclusive: 39.8 µM [inhibitor, partial curve]"}
{"smiles": "CCCCN(CC(=O)Nc1c(C)cccc1CC)C(=O)SCC", "Potency": "inconclusive: 0.631 µM [inhibitor, full curve, poor fit]"}
{"smiles": "CCCCOc1cccc(C(=O)Nc2ccccc2N2CCCC2)c1", "Potency": "inconclusive: 14.1 µM [fluorescent, side channel, partial curve]"}
{"smiles": "O=c1cc(-c2ccccc2)[nH]n1-c1nc2ccccc2[nH]1", "Potency": "inconclusive: 12.6 µM [quencher, side channel, partial curve]"}
{"smiles": "CN(C(=O)COC(=O)c1cc(-c2ccc(Cl)s2)nc2ccccc12)C1CCS(=O)(=O)C1", "note": "(stereo unspecified)", "Potency": "inconclusive: 11.2 µM [quencher, side channel, partial curve]"}
{"smiles": "COc1ccc(OCC(O)CN(C2CCCCC2)C2CCCCC2)cc1", "note": "(stereo unspecified)", "Potency": "inconclusive: 28.2 µM [fluorescent, side channel, partial curve]"}
{"smiles": "O=c1cc(CN2CCN(c3ccc(O)cc3)CC2)nc2scc(-c3ccccc3)n12", "Potency": "inconclusive: 25.1 µM [quencher, side channel, single point]"}
{"smiles": "O=C(Nc1ccccc1C(=O)O)c1ccc(Br)c(S(=O)(=O)NCc2ccccc2)c1", "Potency": "inconclusive: 14.1 µM [quencher, side channel, partial curve]"}
{"smiles": "O=C1C(=O)N(c2ccccn2)C(c2cccc([N+](=O)[O-])c2)/C1=C(/O)c1ccc(Br)cc1", "note": "(stereo unspecified)", "Potency": "inconclusive: 17.8 µM [quencher, side channel, partial curve]"}
{"smiles": "O=C(Nc1ccc(N2CCN(c3ccccc3)CC2)c(F)c1)C1CC1", "Potency": "inconclusive: 20 µM [quencher, side channel, partial curve]"}
{"smiles": "CC(=O)c1ccc(OCC(O)CN2CCc3ccccc3C2)cc1", "note": "(stereo unspecified)", "Potency": "inconclusive: 11.2 µM [inhibitor, partial curve, poor fit]"}
